Laboratory results published in the supplement of paper PMC9174493.
Counter-ions that a name gives are not always drawn. Some of the results follow. Single values of this set are uncertain. Values with irradiation are relative to irradiated vehicle.

Key:
A549-Dual [1] = test: NF-kB reporter (SEAP) activity, viability-corrected, relative to vehicle (fold change vs vehicle); higher = more activation of STING-IRF / NF-kB immune response reporter; conditions: 10 µM
A549-Dual [2] = test: ISRE reporter (Lucia luciferase) activity, viability-corrected, relative to vehicle (fold change vs vehicle); higher = more activation of STING-IRF / NF-kB immune response reporter; conditions: 10 µM
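For NF-kB reporter (SEAP) activity, viability-corrected, relative to vehicle in this document: viability correction based on the alamar blue assay, with concentrations leaving 10% survival or less dropped.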

Compound | NF-kB reporter (A549-Dual [1]; irradiation: 8 Gy/4 fr) | NF-kB reporter (A549-Dual [1]; irradiation: none) | ISRE reporter (A549-Dual [2]; irradiation: 8 Gy/4 fr) | ISRE reporter (A549-Dual [2]; irradiation: none)
Cc1ccc(O)c(C(CCN(C(C)C)C(C)C)c2ccccc2)c1.O=C(O)C(O)C(O)C(=O)O (stereo unspecified) [Tolterodine tartrate] | 0.929 | 0.981 | 1.11 | 1.31
CC(C)C(N)C(=O)OCCOCn1cnc2c(=O)[nH]c(N)nc21.Cl (stereo unspecified) [Valaciclovir HCl] | 0.644 | 0.877 | 0.61 | 0.773
COc1cc2nc(N3CCN(C(=O)C4CCCO4)CC3)nc(N)c2cc1OC.Cl (stereo unspecified) [Terazosin HCl] | 0.786 | 1.18 | 0.781 | 0.805
Cc1cccc(C)c1N(CC(=O)Nc1ccc(-c2ncon2)cc1)C(=O)C1CCS(=O)(=O)CC1 [Amenamevir] | 0.847 | 0.851 | 0.747 | 0.648
CCCCCCCC(=O)NC(CN1CCCC1)C(O)c1ccc2c(c1)OCCO2 (stereo unspecified) [Eliglustat] | 1.34 | 0.743 | 1.9 | 1.19
CC1CC(OC(=O)C(O)c2ccccc2)CC(C)(C)C1 (stereo unspecified) [Cyclandelate] | 0.825 | 1.37 | 0.619 | 0.815
CN(C)c1cc(NC(=O)CNC(C)(C)C)c(O)c2c1CC1CC3C(N(C)C)C(O)=C(C(N)=O)C(=O)C3(O)C(O)=C1C2=O (stereo unspecified) [Tigecycline] | 0.6 | 0.962 | 0.62 | 0.791
CC(NCCc1ccc(O)cc1)C(O)c1ccc(O)cc1.Cl (stereo unspecified) [Ritodrine HCl] | 1.29 | 0.601 | 1.49 | 0.711
C[N+](C)(C)CCOP(=O)([O-])OP(=O)([O-])OCC1OC(n2ccc(N)nc2=O)C(O)C1O.[Na+] (stereo unspecified) [Citicoline sodium] | 0.641 | 1.08 | 0.484 | 0.736
CCCNCC(O)COc1ccccc1C(=O)CCc1ccccc1 (stereo unspecified) [Propafenone HCl] | 0.676 | 1.03 | 0.848 | 1.26
CC(C)NCC(O)COc1cccc2[nH]c3ccccc3c12 (stereo unspecified) [Carazolol] | 1.16 | 1.4 | 1.64 | 1.58
CC(CCc1ccccc1)NCC(O)c1ccc(O)c(C(N)=O)c1.Cl (stereo unspecified) [Labetalol HCl] | 1.45 | 1.26 | 1.43 | 1
O=[N+]([O-])c1ccc(O)c2ncccc12 [Nitroxoline] | 0.394 | 0.826 | 0.114 | 0.513
CC12CCC(=O)C=C1CCC1C2C(O)CC2(C)C(C(=O)CO)CCC12 (stereo unspecified) [Corticosterone] | 0.479 | 0.714 | 0.141 | 0.218
COC(=O)c1ccccc1O [Methyl salicylate] | 0.756 | 1.28 | 0.754 | 0.857
CS(=O)(=O)n1cc2c(n1)CN(C1COC(c3cc(F)ccc3F)C(N)C1)C2 (stereo unspecified) [Omarigliptin (MK-3102)] | 1.04 | 0.914 | 1.03 | 1
Nc1ncnc2nc[nH]c12.Nc1ncnc2nc[nH]c12.O=S(=O)(O)O [Adenine sulfate] | 1.13 | 0.832 | 1.12 | 0.786
CC(=O)OCC[N+](C)(C)C.[I-] [Acetylcholine iodide] | 0.574 | 0.93 | 0.556 | 0.612
Cl.Cl.O=C(O)COCCN1CCN(C(c2ccccc2)c2ccc(Cl)cc2)CC1 (stereo unspecified) [Levocetirizine Dihydrochloride] | 1.03 | 0.74 | 1.46 | 0.842
COc1ccc2cc(C(=O)O)ccc2c1 [6-Methoxy-2-naphthoic acid] | 0.628 | 0.562 | 0.638 | 0.406
O=C1c2c(O)cccc2C(OC2OC(CO)C(O)C(O)C2O)c2cc(CO)cc(O)c21 (stereo unspecified) [Casanthranol] | 0.434 | 0.614 | 0.497 | 0.42
Cn1nnc(-c2ccc(-c3ccc(N4CC(COP(=O)(O)O)OC4=O)cc3F)cn2)n1 (stereo unspecified) [Tedizolid Phosphate] | 0.537 | 0.818 | 0.321 | 0.479
CN(CCO)CC(O)Cn1cnc2c1c(=O)n(C)c(=O)n2C.O=C(O)c1cccnc1 (stereo unspecified) [Xanthinol Nicotinate] | 0.919 | 1.23 | 0.762 | 0.775
COc1cc2nc(N3CCN(C(=O)C4COc5ccccc5O4)CC3)nc(N)c2cc1OC (stereo unspecified) [Doxazosin] | 0.717 | 0.665 | 0.834 | 0.848
CC(C)NCC(O)c1ccc(NS(C)(=O)=O)cc1.Cl (stereo unspecified) [Sotalol HCl] | 1.17 | 1.12 | 1.08 | 1.19

Compound | NF-kB reporter (A549-Dual [1]; irradiation: 8 Gy/4 fr) | NF-kB reporter (A549-Dual [1]; irradiation: none) | ISRE reporter (A549-Dual [2]; irradiation: 8 Gy/4 fr) | ISRE reporter (A549-Dual [2]; irradiation: none)
Cl.Nc1ncnc2[nH]cnc12 [Adenine HCl] | 0.735 | 0.559 | 0.761 | 0.624
CC1(C)SC2C(NC(=O)Cc3ccccc3)C(=O)N2C1C(=O)[O-].[K+] (stereo unspecified) [Benzylpenicillin potassium] | 0.786 | 0.852 | 0.723 | 0.769
CC(CN1c2ccccc2Sc2ccccc21)N(C)C.Cl (stereo unspecified) [Promethazine HCl] | 0.698 | 0.884 | 1.07 | 1.25
OCCOc1ccc(/C(=C(/CCCl)c2ccccc2)c2ccccc2)cc1 [Ospemifene] | 1.2 | 0.825 | 1.25 | 0.97
CCC1OC(=O)CC(O)C(C)C(OC2OC(C)C(OC3CC(C)(O)C(O)C(C)O3)C(N(C)C)C2O)C(CC=O)CC(C)C(=O)/C=C/C(C)=C/C1COC1OC(C)C(O)C(OC)C1OC.O=C(O)C(O)C(O)C(=O)O (stereo unspecified) [Tylosin tartrate] | 0.819 | 0.904 | 0.93 | 0.746
COc1cc(OC)c2ccc(=O)oc2c1 [Citropten] | 2.05 | 3.84 | 1.97 | 10.8
Cc1ncc([N+](=O)[O-])n1C [Dimetridazole] | 0.831 | 0.931 | 0.758 | 0.694
CC(=O)C1(O)CCC2C3CC(C)C4=CC(=O)C=CC4(C)C3(F)C(O)CC21C (stereo unspecified) [Fluorometholone] | 0.289 | 0.747 | 0.0523 | 0.212
CN(CCOc1ccc(NS(C)(=O)=O)cc1)CCc1ccc(NS(C)(=O)=O)cc1 [Dofetilide] | 0.761 | 1.15 | 0.897 | 1.08
OC1COC(O)C(O)C1O (stereo not drawn) [L(+)-Arabinose] | 0.893 | 0.73 | 0.744 | 0.65
CC/C(=C(\c1ccccc1)c1ccc(OCCN(C)C)cc1)c1ccccc1.O=C(O)CC(O)(CC(=O)O)C(=O)O [Tamoxifen Citrate] | 0.671 | 1.59 | 0.72 | 1.69
CC(=O)OC1CC2CCC3C(CCC4(C)C3CC([N+]3(C)CCCCC3)C4OC(C)=O)C2(C)CC1N1CCCCC1.[Br-] (stereo unspecified) [Vecuronium Bromide] | 0.702 | 0.836 | 0.759 | 0.899
COc1cc2c(cc1OC)C(Cc1cc(OC)c(OC)c(OC)c1)[N+](C)(CCCOC(=O)CC/C=C/CCC(=O)OCCC[N+]1(C)CCc3cc(OC)c(OC)cc3C1Cc1cc(OC)c(OC)c(OC)c1)CC2.[Cl-].[Cl-] (stereo unspecified) [Mivacurium chloride] | 0.587 | 1.32 | 0.668 | 0.718
Cc1ccc(C2OC(CO)C(O)C(O)C2O)cc1Cc1ccc(-c2ccc(F)cc2)s1.Cc1ccc(C2OC(CO)C(O)C(O)C2O)cc1Cc1ccc(-c2ccc(F)cc2)s1.O (stereo unspecified) [Canagliflozin hemihydrate] | 0.819 | 0.956 | 0.791 | 0.939
CC(C)c1c(C(=O)Nc2ccccc2)c(-c2ccccc2)c(-c2ccc(F)cc2)n1CCC(O)CC(O)CC(=O)[O-].CC(C)c1c(C(=O)Nc2ccccc2)c(-c2ccccc2)c(-c2ccc(F)cc2)n1CCC(O)CC(O)CC(=O)[O-].[Ca+2] (stereo unspecified) [Atorvastatin Calcium] | 0.762 | 1.25 | 0.414 | 1.14
COc1ccc2cccc(CCNC(C)=O)c2c1 [Agomelatine] | 0.691 | 0.891 | 0.674 | 0.856
CCOc1ccc(Cc2cc(C34OCC(CO)(O3)C(O)C(O)C4O)ccc2Cl)cc1 (stereo unspecified) [Ertugliflozin] | 0.817 | 0.79 | 0.873 | 0.873
NC(Cc1c[nH]c2ccc(O)cc12)C(=O)O (stereo unspecified) [5-hydroxytryptophan (5-HTP)] | 0.975 | 0.988 | 0.933 | 1.11
CC(=O)OC/C=C(\C)CCC=C(C)C [Geranyl acetate] | 1.11 | 0.943 | 1.14 | 0.697
NC(CC(=O)N1CCn2c(nnc2C(F)(F)F)C1)Cc1cc(F)c(F)cc1F.O.O=P(O)(O)O (stereo unspecified) [Sitagliptin phosphate monohydrate] | 0.85 | 0.848 | 0.851 | 0.886
Nc1nc(=O)[nH]cc1F [Flucytosine] | 1.11 | 0.939 | 1.12 | 0.766
Cc1c(-c2ccccc2)oc2c(C(=O)OCCN3CCCCC3)cccc2c1=O.Cl [Flavoxate HCl] | 1 | 1.7 | 0.751 | 0.83
OCc1ccc(Cl)cc1Cl [2,4-dichlorobenzyl alcohol] | 0.809 | 1.04 | 0.862 | 1.01
O=C(O)c1ccc(O)c(O)c1 [Protocatechuic acid] | 0.766 | 0.621 | 0.703 | 0.538
